# Laboratory results taken from the supplement of paper PMC11417369.
# The list shows a part of the results.
# Test system: PfSIP2 AP2 domain 1 (GST-tagged)
# Experiment: gcPBM binding intensity (ln(normalized median fluorescence intensity)); higher = stronger DNA binding
# How it was run: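 The highest Masliner-normalised natural-log median intensity across replicate spots of either probe orientation is reported as binding intensity. GST-tagged P. falciparum DNA-binding domains expressed in E. coli were applied for 1 h to an Agilent 4 × 180k array of primer-extended double-stranded 36-bp intergenic genomic probes plus negative controls, and bound protein was detected with Alexa488 anti-GST antibody and scanned at 488 nm.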
row,Sequence,gcPBM binding intensity (ln)
1,TAATTTTTTTAAAACACACAAATATGTAAATATGTA [CACACA_site7769],6.84
2,GATTTTCATATTTTTTGTACTTACATTTTTCTATAC [XGTACX_site6002],7.36
3,ATAAAATCTTAATCAACAAACAAACAAAAAAAAAAT [CACACA_negctrl_site1161],6.9
4,TATGTGATATATTTATCACACATTATATATATATAT [CACACA_site5103],9.38
5,ATTCATTTTAATATGGGTACATAAAAATAAAAAGAA [XGTACX_site2801],7.45
6,TAATATGAAAAGTGTACACACGCACAGACAAAAAAA [CACACA_site5594],7.33
7,GCATAAATCAGACACACACACATATATAAATATGTA [CACACA_site7187],7.13
8,AATATTTAATTCAACACACATACATATTTATTAAAA [CACACA_site2342],7.15
9,TACATTTTTATTTTTACACACATATTTATTTATATA [CACACA_site6609],7.21
10,TATGATGATGAATAACGTACAAAAAAATTAATCACC [XGTACX_site6794],7.4
11,ATAAATATATGGTTTCATTATATTAAATTCAATTTA [CACACA_negctrl_site213],6.75
12,TGTTTATTTTTTTTATGTACTTATTTTTTATTGCAT [XGTACX_site719],7.61
13,AACTTATTAAGCCCTCCACATTTCTCTACTACAACT [CACACA_negctrl_site1552],6.95
14,TCTATTTTTCTAATTTGTACATAGCTTTGAGTTAGT [XGTACX_site8977],7.05
15,AGATAAAATATATACACACACATAAATACGTACAAA [CACACA_site1086],7.36
16,AACTTCTTTTTTATAACACACAAAATATATATACAA [CACACA_site282],7.37
17,AATAAATAAATAAGTACACACATATATATATATATA [CACACA_site284],9
18,GGCATACACAGACACACACACACACCCACATATATA [CACACA_site591],7.55
19,TAATTATCACATTGCACACACATTTCCTTTTACATT [CACACA_site3443],7.26
20,AAAAGAATGAAACATAATAAATTACATTAAAATAAT [CACACA_negctrl_site897],6.87
21,ATTTTTTTATTTTGTGCACACACATAAAAATATATA [CACACA_site762],9.99
22,AAAGTTACATTCGACACACACATAACAACTAAATAA [CACACA_site3419],7.2

row,Sequence,gcPBM binding intensity (ln)
1,TATTATAATTTTATATGTACACATATATAAATATAT [XGTACX_site4054],6.98
2,TTTTACATATATATATGTACGAAAATGAAAAGGTCA [XGTACX_site5576],7.36
3,TTTATTTATTAATACACACACACACCCCCACAAAAT [CACACA_site240],8.61
4,CTAAATAAAGTTAACACACACATAATATTTATATGT [CACACA_site6368],6.83
5,TACATAAACATTTATACACACATTAGATATACATAT [CACACA_site6329],7.12
6,TCAAAGAGTAGAAAGGTGCTTATGAACGAGATAATT,7.54
7,AACTAAATTTATAATTGTACATTAAAATATGTATTA [XGTACX_site479],6.95
8,ACATATACATTTATATGTACTCATTTATCTTATGTA [XGTACX_site6594],7.08
9,TTTTTTAAAACTTCAAAAAGAGCACTTGAATTTTTT [GTGCAC_negctrl_site455],7.03
10,AAATATTACATACACGCACACATTAATATATTTAAA [CACACA_site2603],7.38
11,ACAAGAACAGAACGTACACACACATATATATATATA [CACACA_site9143],9.37
12,ACCTACACAAGCATTAAACACACAAAAGGGATACTT [CACACA_site8273],7.18
13,ACCTAATTTTTATATTGTACATAATATAATATATAT [XGTACX_site1715],7.35
14,CTCCACAAACAAATCGCACACCCAACCCAACATATA [CACACA_site2650],7.32
15,TATTATAATGACTATAGTACATAATATTATTTATAT [XGTACX_site1977],6.94
16,ATAGAACTGAATAAATCTATAAATAAATATATATAT [GTGCAC_negctrl_site604],8.42
17,TCATACCTACATAAAAAAAGGGAAACAAAATGTCAT [XGTACX_negctrl_site34],6.75
18,AATAAATATAAATACACACCCATATATATATATATA [CACACA_site5436],9.82
19,TTAAAAAAAAAAAAAAGTACACACTTATAAAATATT [XGTACX_site1630],7.3
20,ACCAATAAATATTTGGTGCATACATATATATATATA,9.96
21,TTGTATCTTCATTTTATCAGAAAAAAAAAAAAAAAT [CACACA_negctrl_site775],6.95
22,ATATATATATATAGGGGTACTTAAATTTTACTAACC [XGTACX_site1832],9.3

row,Sequence,gcPBM binding intensity (ln)
1,ATTTTATTTATATACACACACATATATATATTATAT [CACACA_site822],7.18
2,AAAGGGTTACAAGAGGAACACACAAAAAAATAAATA [CACACA_site8406],6.74
3,AATAAATAAATAAATTAATATATATATATATATAGA [CACACA_negctrl_site1661],6.98
4,TTTTGCGAAAAAAGGTGTACTGTAAATATATTGAGG [XGTACX_site8941],7.25
5,AGCACCCACCAACACACACACACACCCACCCACCGA [CACACA_site368],7.68
6,AAATAAATAAATATACGTACATATATATAATATATA [XGTACX_site5124],7.23
7,TTTTTTTTTAATTACATAAAATAAAAATATTTCTAT [CACACA_negctrl_site584],6.65
8,TTAATATGTTTAACCATTTTACATAAATTGATTTGT [CACACA_negctrl_site1100],6.78
9,TTTTTTTTGATTTGTTTGCACTTATTTCCACAATAA,8.23
10,TACGTAAATTTTAATACACACTATAGGATATTCTGC [CACACA_site5418],6.74
11,TATATATTTATATTTACACACAGTTACTATGTAGAT [CACACA_site3292],6.86
12,ATTAAATGATCAAGGTGTACATTAACAAGAACTATA [XGTACX_site7022],7.29
13,TGAATAAAAAAACCTAGTACTTAAATAAGTATATTT [XGTACX_site7690],6.67
14,TATATATATACATACGTACACACAAATATTAAAATA [CACACA_site1950],8.15
15,TAAAAAAAATAGAAACGTACATAAAAAATAAATAAT [XGTACX_site5796],7.24
16,TCATATAAAACATGCACACATATGTACTCTTATAAA [CACACA_site3748],7.44
17,TTTATTAATGGACACACACACACACCCAAAATAAAA [CACACA_site4294],7.44
18,TATATTTATATATGTTGTACTCTCCAATAATATTCC [XGTACX_site4438],6.91
19,TTTAATATATATATGTGTACATATAAATTATATATA [XGTACX_site8511],6.99
20,TTTATATTTTAAAAAATAATATTATGTATTTTTAAA [TGCATGCA_negctrl_site507],6.68
21,GTACTTATTAAATGTGCATGTTGATATATAAATGTA [TGCATGCA_site902],9.03
22,ATATAATAAACGTGTACACAATTAAATTATTATATA [CACACA_site5017],7.47

row,Sequence,gcPBM binding intensity (ln)
1,ATATACATAAAAATATGTACATATAAAATATATACA [XGTACX_site2394],7.2
2,TAGACTCCCAGACACACACACACACCCATATAATAT [CACACA_site593],6.99
3,TTTTTTTTTTTTGGTGCATGCACATTTTGTTTTTTT [TGCATGCA_site570],10
4,TATTATTATTGTTGATGTACATTTAATATAATATAT [XGTACX_site4482],7.13
5,TTTTTAAAAAAATTGATTCTTTTTCTTTTTTTTCTT [XGTACX_negctrl_site127],6.42
6,TTTTTTGCTTGGGTGAGAAAAAATAAAATAAAGGAA [TGCATGCA_negctrl_site139],7.44
7,TTATAATCTTTTGGTTCTATAGAATATCAAAAAATA [CACACA_negctrl_site1149],6.98
8,AAAAAATAAAAGGAAAAAAAAAAAAAAAAAAAAAAT [CACACA_negctrl_site635],6.7
9,TATTATTGTCATTTTTTTTTTTTTTTTTTCTATTTC [XGTACX_negctrl_site114],6.71
10,TTATTAAAAATGTATTGTACAAATTTATTAGTAAAT [XGTACX_site4799],7.13
11,ATTTATACAAAGCTTCGTACATAATGTATTCTTTTT [XGTACX_site2166],6.76
12,TTTTAATTGTTTATTTGTACATATGTTTAATTATAT [XGTACX_site571],7.29
13,CCCGAACAAACAAATAAACACACAAAAAAAAATATA [CACACA_site8540],7.05
14,TATTGAAAAAATAAAAGTACAAACTCTTATAATATG [XGTACX_site8196],7.2
15,AACACATACAAACACACACACAAAAAAAAAAAAAAA [CACACA_site393],7.29
16,ATTATATATGTATGGTGTACTAAGAATATTTTTTTA [XGTACX_site1950],7
17,ATTCAATATAAATACACACACACTTTTAATAATTAA [CACACA_site5963],7.04
18,CTAAACAAAAAATAATGTACACATACATAAAAAATA [XGTACX_site1808],7.04
19,AAAAAAACGATCGATCGTACTTATATTTACACATTC [XGTACX_site2883],6.87
20,ACATTCAATAAACGTCGTACACTTTCCTTTTTATGA [XGTACX_site3274],7.27
21,ACATGGTGATAATACTGTACAAAAATAAATAAATAC [XGTACX_site897],7.11
22,TTATTTTTCTAAAAAGCATGCAAATAAAGATATGAA [TGCATGCA_site1032],7.12
